# According to PubChem BioAssay AID686979 (National Center for Advancing Translational Sciences (NCATS), 2013):
# Several values for one entry are separate records, joined by “and”; a condition that tells them apart may be missing. Equal values may be shown once. Screen size: about 420,000 compounds; about 50,000 (12%) were called active. The shares of active, inactive and inconclusive entries below differ from those in the screen. The call rests on the fitted dose curve; in most records, active means well fitted inhibition curve with a large enough effect; inconclusive means small, poorly fitted or top-dose-only effect; inactive means flat fitted curve, though single readings scatter. A potency beside an inconclusive call is a rough fit, not a confirmed value.
# Assay: qHTS for Inhibitors of human tyrosyl-DNA phosphodiesterase 1 (TDP1): qHTS in cells in presence of CPT; further: nearly all actives have a fitted effect of over 55% in size
# Settings: chicken DT40 Tdp1-/-;hTDP1 cells + 20 nM CPT, ATP luminescence, 48 h; series mostly up to 46.2 µM
# Outline: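 Chicken DT40 Tdp1-/- cells complemented with human TDP1, 400 cells/well, exposed to compounds plus 20 nM camptothecin for at least 48 h at 37 C; viability read as ATP content by CellTiter-Glo luminescence.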
# Potency means the concentration at half of the fitted maximal effect; tags describe the fitted curve by direction and shape.
row,Structure (SMILES),Potency
1,COc1ccc(/C=C2\CCc3ccccc3C2=O)c(OC)c1OC,active: 23.1 µM
2,COc1cc(OC)cc(C(=O)N2CCN(C(=O)c3cccs3)CC2)c1,inactive
3,CC(C)Oc1ccc(CNCCC2(C(C)C)CCOC(C)(C)C2)cc1 (stereo not drawn),"inconclusive: 29.1 µM [inhibitor, single point]"
4,N#Cc1ccccc1S(=O)(=O)N1CCN(C(=O)CN(Cc2ccco2)Cc2cccs2)CC1,"inconclusive: 20.6 µM [inhibitor, single point]"
5,O=C(NCCc1ccc(Cl)cc1)c1ccc2c(c1)N(Cc1ccccc1F)C(=O)c1ccccc1S2(=O)=O,"inconclusive: 25.9 µM [inhibitor, single point]"
6,O=C(Nc1sc2c(c1CN1CCOCC1)CCC2)c1ccc(F)cc1,"inconclusive: 13 µM [inhibitor, partial curve]"
7,COC(=O)c1cc(Cl)c(NC(=O)c2cc(OC)c(OC)c(OC)c2)cc1OC,inactive
8,COc1ccc(Nc2nc(-c3sc(N)nc3C)cs2)cc1,"inconclusive: 29.1 µM [inhibitor, single point]"
9,Cc1cccc([N+](=O)[O-])c1NC(=O)COC(=O)c1nc2nccc(C)n2n1,inactive
10,O=C(COC(=O)CCc1ccccc1)NC1CCS(=O)(=O)C1 (stereo not drawn),inactive
11,CCOC(=O)Cc1csc(/N=C/c2c(O)n(-c3ccc(C)c(C)c3)c(=O)c3ccccc23)n1,active: 20.6 µM
12,COC(=O)c1ccc(NC(=O)C2CCCN2S(=O)(=O)c2ccc(C)cc2)cc1 (stereo not drawn),"inconclusive: 25.9 µM [inhibitor, single point]"
13,O=C(Nc1nnc(C2=COCCO2)o1)c1ccc([N+](=O)[O-])cc1,"inconclusive: 29.1 µM [inhibitor, single point]"
14,CC(C)(C)OC(=O)N[C@@H](CC(=O)OCc1ccccc1)C(=O)O,"inconclusive: 29.1 µM [inhibitor, single point]"
15,C/C(Cl)=C\Cn1c(Nc2ccccc2)nc2c1c(=O)n(C)c(=O)n2C,active: 11.2 µM
16,O=C(c1cc2c(ccc3ccccc32)o1)N1CCN(c2ncc(C(F)(F)F)cc2Cl)CC1,"inconclusive: 14.1 µM [inhibitor, partial curve]"
17,CCCCC/C=C/C1=CC(=O)C[C@H](c2ccc(Cl)cc2)C1,"inconclusive: 9.2 µM [inhibitor, partial curve, poor fit]"
18,CCCCc1nc2cc(C(=O)N(C)C3CCOCC3)ccc2o1,inactive
19,O=C(NCCc1ccncc1)C12CC3CC(CC(C3)C1)C2,"inconclusive: 7.31 µM [inhibitor, full curve]"
20,CC(C)C[C@H]1CN([C@@H](CC(C)C)CN2CCCC2CN2C(=S)NC[C@@H]2Cc2ccccc2)C(=S)N1CCc1ccccc1 (stereo partly drawn),"inconclusive: 23.1 µM [inhibitor, single point]"
21,CC(C)=CCN1CCN(Cc2nc(-c3ccc(F)cc3)cs2)CC1CCO (stereo not drawn),"inconclusive: 16.4 µM [inhibitor, single point]"
22,CC(=NNC(=S)N1CCN(c2ccccn2)CC1)c1ccccn1,active: 18.4 µM
23,Cc1ccc(S(=O)(=O)N2C[C@H]3N(C(=O)OC(C)C)N(C(=O)OC(C)C)C[C@H](OC(=O)Nc4cccs4)[C@@]3(O)C2)cc1,"inconclusive: 29.1 µM [inhibitor, single point]"

row,Structure (SMILES),Potency
1,CCCCCCN(C(=O)CCl)c1ccccc1,active: 16.4 µM
2,CCc1nnc(NC(=O)CSc2nccn2-c2cccc(C)c2C)s1,active: 16.4 µM
3,Cn1c2nc3ccccc3c-2nc2ccccc21,active: 18.4 µM
4,COc1ccc(-c2cc(N)n(S(=O)(=O)c3ccc(F)cc3)n2)cc1OC,active: 18.4 µM
5,CCOc1ccc(NC(=O)Nc2cc(-c3ccccc3)sc2C(=O)OC)cc1,"inconclusive: 23.1 µM [inhibitor, single point]"
6,CC(=O)Nc1cccc(-c2ccnc3c2CC(C(=O)NCc2cccnc2)O3)c1 (stereo not drawn),inactive
7,CCN1CCN(c2cc(C(C)(C)C)nc3c(-c4ccccc4)c(C)nn23)CC1,"inconclusive: 29.1 µM [inhibitor, single point]"
8,CCCCCCCNC(=O)C1(CC2CC(c3cccc(Br)c3)=NO2)CCN(C(=O)c2ccccc2)CC1 (stereo not drawn),"inconclusive: 20.6 µM [inhibitor, single point]"
9,COc1ccc(CN2C(=O)C(CC(=O)NC(c3ccccc3)c3ccccc3)CC(C(=O)N(C)C)=C2C)cc1 (stereo not drawn),"inconclusive: 29.1 µM [inhibitor, single point]"
10,COc1cccc(CNC(=O)CN2C(=O)COc3ccc(S(=O)(=O)N4CCCCCC4)cc32)c1,"inactive and inconclusive: 14.6 µM [inhibitor, partial curve, poor fit]"
11,Cc1noc(C)c1S(=O)(=O)N(CC(=O)NCc1ccc(Cl)cc1)c1ccc2c(c1)OCO2,"inconclusive: 16.4 µM [inhibitor, single point]"
12,O=[N+]([O-])c1ccc2nc(NN=Cc3ccc(O)cc3)sc2c1,active: 29.1 µM
13,CC(C)Oc1cccc(C(=O)NC(=S)Nc2cccnc2)c1,inactive
14,CSc1ccc(/C=N\NC(=O)COc2ccc(Cl)cc2Br)cc1,"inconclusive: 22.4 µM [inhibitor, single point]"
15,CCOC(=O)C1=C(CN2CCSCC2)NC(=O)NC1c1cccc([N+](=O)[O-])c1 (stereo not drawn),inactive
16,Cc1ccc(-c2nc3ncccc3o2)cc1NC(=O)c1ccccc1Br,"inconclusive: 23.1 µM [inhibitor, single point]"
17,C[C@@H]1CN([C@H](C)CO)C(=O)c2c(c3ccccc3n2C)-c2ccccc2CO[C@H]1CN(C)Cc1ccccc1,"inconclusive: 25.9 µM [inhibitor, single point]"
18,CC(C)N(C)c1ncnc2c1ncn2[C@H]1CN(Cc2ccc(Cl)cc2)C[C@@H](CO)O1,"inconclusive: 23.1 µM [inhibitor, single point]"
19,Cc1ccc(S(=O)(=O)NC2CC2)cc1,inactive
20,Nc1ccccc1C(=O)N1CCc2ccccc21,inactive
21,O=C(CN1CCN(S(=O)(=O)c2ccc(Br)cc2)CC1)Nc1ccccc1C(=O)c1ccccc1,"inconclusive: 13 µM [inhibitor, partial curve]"
22,CCc1cccc(NC(=O)Cn2c(=O)n(CCC(=O)NCC3CCCO3)c(=O)c3cc(OC)c(OC)cc32)c1 (stereo not drawn),"inactive and inconclusive: 29.1 µM [inhibitor, single point]"
23,NC(=O)c1ccccc1NC(=O)c1ccc2ccccc2c1,inactive

row,Structure (SMILES),Potency
1,CCCCCCCCN1[C@@H](CC(=O)OC)c2cc(F)ccc2S1(=O)=O,"inconclusive: 31.6 µM [inhibitor, single point] and inconclusive: 23.1 µM [inhibitor, partial curve, poor fit]"
2,O=C(Nc1nnc(C2CC2)s1)c1ccccn1,"inconclusive: 23.1 µM [inhibitor, single point]"
3,O=c1cc(-c2ccccc2)oc2ccccc12,"inconclusive: 68.6 µM [inhibitor, single point]"
4,O=P(CCCO)(Cc1ccccc1)Cc1ccccc1,inactive
5,CCOC(=O)c1c(NC(C)=O)sc2c1C1CCN2CC1,"inconclusive: 13 µM [inhibitor, partial curve, poor fit]"
6,COc1ccc(NS(=O)(=O)c2cccc(C(=O)NCC(c3ccc(OC)cc3)N3CCCC3)c2)cc1 (stereo not drawn),active: 13 µM
7,CC(C)CNc1nc2c(c(=O)n(C)c(=O)n2C)n1Cc1cccc(Br)c1,active: 20.6 µM
8,COc1ccccc1NC(=O)Cn1nc(-c2ccncc2)nc1SCC(=O)NC1CCCC1,active: 13 µM
9,COc1ccc([C@H]2CC(=O)C=C(c3cc4ccccc4c4ccccc34)C2)cc1,"inconclusive: 29.1 µM [inhibitor, single point]"
10,CCCCN(CCCNC(=O)CN1C(=O)COc2ccccc21)c1ccccc1,inactive
11,Cc1ccc(CSC2=Nc3ccccc3C3=NC(CC(=O)NCc4cccs4)C(=O)N23)cc1 (stereo not drawn),active: 16.4 µM
12,CN(C(=O)C1CCC(=O)N(Cc2cccc(F)c2)C1)C1CCCCC1 (stereo not drawn),"inconclusive: 29.1 µM [inhibitor, single point]"
13,CCOC(=O)C1(Cc2cccc(Cl)c2)CCCN(C(=O)c2ccc(C)nc2)C1 (stereo not drawn),"inconclusive: 29.1 µM [inhibitor, single point]"
14,CCc1cc2c(=O)c(-c3nc4ccccc4n3C)coc2c(CN2CCCC(C)C2)c1O (stereo not drawn),"inconclusive: 6.51 µM [inhibitor, single point]"
15,CCOc1ccc2nc(SCC(=O)N(CC(C)C)c3c(N)n(CC(C)C)c(=O)[nH]c3=O)[nH]c2c1,inactive
16,CCNC(=S)NCc1ccc(OC)c(OC)c1,inactive
17,Cc1ccc(CNC(=O)c2cc3c(s2)-c2ccc(Cl)cc2SC3)cc1,"inconclusive: 20.6 µM [inhibitor, single point]"
18,O=C(NCc1ccccc1)c1ccc(CS(=O)Cc2ccc(Cl)cc2)o1 (stereo not drawn),"inconclusive: 32.6 µM [inhibitor, single point]"
19,CC[C@]1(C(=O)OC)[C@H]2C(=O)N(Cc3ccccc3)C(=O)[C@H]2[C@H]2CN=C(SCC(=O)c3ccccc3)N21,"inconclusive: 29.1 µM [inhibitor, single point]"
20,CCCNC(=O)C1(C)CCCN(Cc2cccc(C#N)c2)C1 (stereo not drawn),active: 18.4 µM
21,CCCCSC1=N/C(=C/c2ccsc2)C(=O)N1c1ccccc1,"inconclusive: 23.1 µM [inhibitor, single point]"
22,O=C(NC1CCCC1)c1cc(-c2ccccc2)on1,"inconclusive: 16.4 µM [inhibitor, single point]"
